Assay [1] concerns the target Flag-tagged BAG3 wild type (expressed in HEK293 cells) (human) (UniProt O95817). The assay is described as follows: co-IP; HEK293 cells transiently transfected with Flag-tagged BAG3 or mutants and αB-crystallin; lysed 48 h later in immunoprecipitation buffer (20 mM Tris pH 7.5, 150 mM NaCl, 1% TritonX-100); immunoprecipitated with anti-Flag antibody; immunoblot.
Assay [2] concerns the target Flag-tagged BAG3 (expressed in rat neonatal cardiomyocytes using adenovirus) (human) (UniProt O95817). The assay is described as follows: co-IP; Flag-tagged BAG3 expressed by adenovirus in rat neonatal cardiomyocytes; cell extract immunoprecipitated with anti-Flag antibody; endogenous proteins detected by immunoblot. (In general: Immunoblotting shows a protein as a band on a membrane.)

Protein sequences, listed by entry. Tags and fused reporters are not part of them. Lines headed by an entry give the natural chain unless they say otherwise; changes in a name come on top. Chains listed by the source or under a name are the forms on record and can include a tag or linker.
UniProt O95817: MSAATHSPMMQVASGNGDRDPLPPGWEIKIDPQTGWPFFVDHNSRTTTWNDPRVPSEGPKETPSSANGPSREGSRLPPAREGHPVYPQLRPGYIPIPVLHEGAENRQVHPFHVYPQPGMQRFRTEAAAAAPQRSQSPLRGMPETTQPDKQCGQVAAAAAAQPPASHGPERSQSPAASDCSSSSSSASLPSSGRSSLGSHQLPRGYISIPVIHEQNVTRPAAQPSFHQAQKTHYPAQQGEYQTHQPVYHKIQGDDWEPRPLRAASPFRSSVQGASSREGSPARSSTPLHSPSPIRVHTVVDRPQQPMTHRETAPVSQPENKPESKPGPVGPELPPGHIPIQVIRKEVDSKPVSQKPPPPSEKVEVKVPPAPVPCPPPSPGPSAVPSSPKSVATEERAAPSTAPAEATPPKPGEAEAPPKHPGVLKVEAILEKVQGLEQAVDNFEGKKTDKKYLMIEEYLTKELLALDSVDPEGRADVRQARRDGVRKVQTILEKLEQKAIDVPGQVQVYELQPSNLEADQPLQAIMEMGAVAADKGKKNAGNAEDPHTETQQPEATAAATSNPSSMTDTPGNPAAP
His-BAG3ΔM2 (deletion of aa 87–101 and aa 200–213) (O95817, form named): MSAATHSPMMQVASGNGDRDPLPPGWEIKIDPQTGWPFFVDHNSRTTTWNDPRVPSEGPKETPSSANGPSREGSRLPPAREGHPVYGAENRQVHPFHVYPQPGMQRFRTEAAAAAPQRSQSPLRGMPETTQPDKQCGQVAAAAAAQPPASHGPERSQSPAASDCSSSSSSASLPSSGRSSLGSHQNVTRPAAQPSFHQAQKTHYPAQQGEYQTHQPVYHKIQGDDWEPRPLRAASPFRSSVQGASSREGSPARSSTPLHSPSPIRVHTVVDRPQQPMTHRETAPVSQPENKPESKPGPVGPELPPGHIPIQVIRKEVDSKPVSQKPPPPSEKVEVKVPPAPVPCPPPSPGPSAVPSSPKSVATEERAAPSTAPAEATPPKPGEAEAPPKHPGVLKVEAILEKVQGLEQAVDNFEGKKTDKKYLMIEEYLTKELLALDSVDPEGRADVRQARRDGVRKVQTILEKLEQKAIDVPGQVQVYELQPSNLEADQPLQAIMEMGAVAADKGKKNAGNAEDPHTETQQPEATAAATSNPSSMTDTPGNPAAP
UniProt P63018: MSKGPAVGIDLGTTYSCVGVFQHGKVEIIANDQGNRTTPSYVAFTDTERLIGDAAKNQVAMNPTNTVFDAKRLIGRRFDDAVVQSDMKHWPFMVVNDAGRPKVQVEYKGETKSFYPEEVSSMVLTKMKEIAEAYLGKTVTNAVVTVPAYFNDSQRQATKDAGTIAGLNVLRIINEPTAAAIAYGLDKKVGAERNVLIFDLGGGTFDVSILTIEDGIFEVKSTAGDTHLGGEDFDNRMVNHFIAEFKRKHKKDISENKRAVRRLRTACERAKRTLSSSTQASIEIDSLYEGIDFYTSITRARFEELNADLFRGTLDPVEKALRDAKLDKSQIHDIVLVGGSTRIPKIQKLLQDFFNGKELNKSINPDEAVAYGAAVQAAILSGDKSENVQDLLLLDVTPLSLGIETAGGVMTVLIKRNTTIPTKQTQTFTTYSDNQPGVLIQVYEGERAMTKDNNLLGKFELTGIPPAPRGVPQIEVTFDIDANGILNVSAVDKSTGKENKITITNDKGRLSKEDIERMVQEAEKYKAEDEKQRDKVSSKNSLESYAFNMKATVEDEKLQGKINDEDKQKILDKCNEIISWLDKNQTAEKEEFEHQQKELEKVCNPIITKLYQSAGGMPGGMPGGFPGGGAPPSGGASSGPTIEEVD

Assay [3] addresses T1, GST-BAG3 (human, UniProt O95817 1-575).
T1 construct: BAG3, human, cDNA subcloned into pGEX-6P-1; also called GST-fused BAG3; GST protein fused to BAG3; source: E. coli BL21, purified (glutathione-Sepharose beads)
The assay is described as follows: condition: only with both peptides (aa 87–101 and aa 200–213 of BAG3) present; pull-down; competition: purified GST-BAG3 incubated with purified αB-crystallin in the presence or absence of peptides aa 87–101 or 200–213 of BAG3; precipitated with GSH beads; immunoblot with anti-αB-crystallin …; both purified.

Assay [4] has as its target His-BAG3 wild type (expressed in HEK293 cells) (human) (UniProt O95817). The assay is described as follows: co-IP; HEK293 cells expressing His-tagged BAG3 or BAG3ΔM2 with αB-crystallin; cell extract precipitated with anti-His antibody; immunoblot with anti-αB-crystallin antibody.
For assay [5], the target named is His-BAG3ΔM2 (deletion of aa 87–101 and aa 200–213) (human) (UniProt O95817). The description is as above.

No constants are given. Whether binding was seen depends on the method and setting. For some assays here: In cells and extracts the contact can be indirect. Some entries that bind do so weakly or less than the wild type. For some assays here: Tags and fused reporters may be left off the sequences shown.

Regarding “endogenous Hsc70 of HEK293 cells (from UniProt P11142-1 1-646)”, the binding result in assay [1] is “binds”. Regarding “endogenous Hsc70 of rat neonatal cardiomyocytes (from UniProt P63018 1-646)”, in assay [2], the binding entry is given as “binds”.

B1: endogenous αB-crystallin of rat neonatal cardiomyocytes (protein, UniProt P23928 1-175)
chain: MDIAIHHPWIRRPFFPFHSPSRLFDQFFGEHLLESDLFSTATSLSPFYLRPPSFLRAPSWIDTGLSEMRMEKDRFSVNLDVKHFSPEELKVKVLGDVIEVHGKHEERQDEHGFISREFHRKYRIPADVDPLTITSSLSSDGVLTVNGPRKQASGPERTIPITREEKPAVTAAPKK
B1: the binding result in assay [2] is listed as “binds”.

B2: purified αB-crystallin wild type (from E. coli) (natural protein, human, UniProt P02511 1-175, looked up)
chain: MDIAIHHPWIRRPFFPFHSPSRLFDQFFGEHLLESDLFPTSTSLSPFYLRPPSFLRAPSWFDTGLSEMRLEKDRFSVNLDVKHFSPEELKVKVLGDVIEVHGKHEERQDEHGFISREFHRKYRIPADVDPLTITSSLSSDGVLTVNGPRKQVSGPERTIPITREEKPAVTAAPKK
notes: αB-crystallin, human, wild type; probably made as a GST fusion from pGEX-6P-1 with the GST removed (it is pulled down by GST-BAG3 on GSH beads); also called WT; source: E. coli, purified
In the case of B2, in assay [3], the binding result is listed as “no binding”.

B3: αB-crystallin wild type (non-tagged, expressed in HEK293 cells) (protein, UniProt P02511 1-175)
chain: MDIAIHHPWIRRPFFPFHSPSRLFDQFFGEHLLESDLFPTSTSLSPFYLRPPSFLRAPSWFDTGLSEMRLEKDRFSVNLDVKHFSPEELKVKVLGDVIEVHGKHEERQDEHGFISREFHRKYRIPADVDPLTITSSLSSDGVLTVNGPRKQVSGPERTIPITREEKPAVTAAPKK
Take B3: the binding entry in assay [4] was “binds”; in assay [5] it was “no binding”; in assay [1], “binds”.

B4: αB-crystallin R120G (non-tagged, expressed in HEK293 cells) (protein, UniProt P02511 1-175)
chain: MDIAIHHPWIRRPFFPFHSPSRLFDQFFGEHLLESDLFPTSTSLSPFYLRPPSFLRAPSWFDTGLSEMRLEKDRFSVNLDVKHFSPEELKVKVLGDVIEVHGKHEERQDEHGFISREFHGKYRIPADVDPLTITSSLSSDGVLTVNGPRKQVSGPERTIPITREEKPAVTAAPKK
Turning to B4, the binding entry in assay [1] is “binds”.

Source of the values: publication PMC3057972, “BAG3 Directly Interacts with Mutated alphaB-Crystallin to Suppress Its Aggregation and Toxicity” (PLoS ONE, 2011).
